Results taken from PubChem BioAssay AID686979 (National Center for Advancing Translational Sciences (NCATS), 2013).
The campaign covered roughly 420,000 compounds. About 50,000 (12%) were called active. This list was built around the results that the source calls inconclusive (neither active nor inactive); the mix of calls is not that of the screen. Calls come from the whole dose curve; as a rule, active = well fitted inhibition curve with a large enough effect; inconclusive = small, poorly fitted or top-dose-only effect; inactive = flat fitted curve, though single readings scatter. No potency is given beside an inconclusive call; the fits are too rough.

assay: qHTS for Inhibitors of human tyrosyl-DNA phosphodiesterase 1 (TDP1): qHTS in cells in presence of CPT; conditions: chicken DT40 Tdp1-/-;hTDP1 cells + 20 nM CPT, ATP luminescence, 48 h; activity change, negative = growth inhibition: at 46.2 µM (top of the series); note: nearly all actives have a fitted effect of over 55% in size
Summary of the method: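 Cell growth measured by CellTiter-Glo luminescence after a minimum 48 h, 37 C compound exposure with 20 nM CPT in Tdp1-knockout DT40 cells stably expressing hTDP1, seeded 400/well; qHTS titration format.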
% is set by controls: 0 for no effect and ±100 for the full control effect; potency is the fitted concentration of half-maximal effect; tags give direction and shape of the fitted curve.

SMILES	activity change, negative = growth inhibition	Potency
CCCC(=O)NC1=C(C#N)C2(CCCCC2)Cc2ccccc21	inactive: -10.1%	–
COc1cc(OC)cc(C(=O)Nc2ccc3oc(-c4ccccc4C)nc3c2)c1	–	inconclusive [inhibitor, single point]
O=C(CCc1ccc(S(=O)(=O)N2CCOCC2)cc1)Nc1nc(COc2ccccc2)cs1	–	active: 14.6 µM
Cc1sc2ncnc(N3CCC(C(=O)NCC(=O)Nc4ccc(F)c(F)c4)CC3)c2c1C	–	inconclusive [inhibitor, single point]
CC(C)CNc1nc(NC(C)(C)C)nc(Oc2ccc(=O)n(-c3ccccc3)n2)n1	–	inconclusive [inhibitor, single point]
COc1ccccc1C(=O)Nc1ccc(S(=O)(=O)N(C)c2ccccc2)cc1	–	inconclusive [inhibitor, single point]
CCOC(=O)c1cc(=O)c2ccc(OCc3ccccc3)cc2o1	inactive: -0.489%	–
COc1cc(OC)cc(C(=O)Nc2cccc(NC(=O)c3cccs3)c2)c1	–	inconclusive [inhibitor, single point]
COc1ccc(NS(=O)(=O)/C=C/c2ccccc2)cc1	–	inconclusive [inhibitor, single point]
Cc1nc2c(O)cccc2c(=O)[nH]1	–	inconclusive [inhibitor, partial curve]
COCCNC(=O)/C(C#N)=C/c1ccc(-c2ccc(OC)cc2[N+](=O)[O-])o1	inactive: -4.39%	–
Cc1ccc(Cn2c(SCC(=O)NCC3CCCO3)nc3c(sc4ccccc43)c2=O)cc1 (stereo not drawn)	inactive: -16%	–
Cc1ccc(NS(=O)(=O)c2c(C)[nH]c(C)c2C(=O)N2CCCCC2)cc1Cl	–	inconclusive [inhibitor, partial curve]
COc1cccc(/C=N/NC(=O)c2nc(-c3ccccc3)cc(-c3ccccc3)n2)c1O	–	active: 11.6 µM
Cc1ccc(C)c2sc(NC(=O)c3ccc(S(=O)(=O)N4CCCC4)cc3)nc12	–	active: 29.1 µM
Cc1cc(-c2c(C)[nH]n(-c3ccc(Cl)cc3)c2=O)n[nH]1	–	active: 7.31 µM
Cc1ccc(OCC(=O)N(Cc2cccs2)C2CCS(=O)(=O)C2)cc1C (stereo not drawn)	–	inconclusive [inhibitor, single point]
Cc1ccc(NC(=O)c2oc3ccc(S(=O)(=O)N4CCCCC4)cc3c2C)cc1C	inconclusive: -30% [inhibitor]	–
CC(C)CCSc1nnc(Cn2c(=O)sc3ccccc32)n1C	–	inconclusive [inhibitor, single point]
O=C(c1cc2ccc3cccnc3c2[nH]1)N1CCN(c2cccc(C(F)(F)F)c2)CC1	–	inconclusive [inhibitor, single point]
Cc1ccc(-n2ncc3c2CC(C)(C)CC3NC(=O)CCc2ccc(=O)[nH]n2)cc1 (stereo not drawn)	inactive: 0.885%	–
COc1ccc(N(CC(=O)Nc2ccccc2C(=O)N2CCCC2)S(=O)(=O)c2ccccc2)cc1	–	active: 20.6 µM

SMILES	activity change, negative = growth inhibition	Potency
O=C(Nc1cc(S(=O)(=O)N2CCOCC2)ccc1N1CCCC1)C1COc2ccccc2O1 (stereo not drawn)	–	inconclusive [inhibitor, partial curve]
CC(C)(C)C(=O)N1CCN(c2ccc([N+](=O)[O-])cc2-n2cccc2)CC1	–	inconclusive [inhibitor, single point]
COc1ccc(-c2cc(C(F)(F)F)nc(SCC(=O)N(C)Cc3ccccc3)n2)cc1OC	–	inconclusive [inhibitor, single point]
CCOc1cnc(-c2c(-c3c(Cl)cccc3Cl)noc2C)o1	–	inconclusive [inhibitor, partial curve]
COc1ccc(N(C(=O)c2ccccc2F)S(=O)(=O)c2ccc3c(c2)n(C)c(=O)n3C)cc1	inactive: 11.2%	–
Cc1c(CNCc2ccc(OC(C)C)cc2)c(C(=O)O)c(C)n1Cc1ccc(Cl)cc1	–	inconclusive [inhibitor, single point]
CCN1CCN(CCCNC(=O)c2cc3c(=O)n(CC)c4ccccc4c3s2)CC1	–	inconclusive [inhibitor, single point]
COc1ccc(CCNC(N)=S)cc1OC	inactive: -1.93%	–
CC(=O)c1cccc(-c2ccc3c(c2)C(C)(Cc2ccc(S(C)(=O)=O)cc2)C(=O)N3)c1 (stereo not drawn)	–	inconclusive [inhibitor, single point]
Cc1ccc(OCC(=O)N/N=C\c2c(C)n(C)c3ccccc23)c([N+](=O)[O-])c1	–	inconclusive [inhibitor, single point]
CCOC(=O)c1cccc(NC(=O)c2cc(S(=O)(=O)N3CCCCCC3)cn2C)c1	–	inconclusive [inhibitor, single point]
CCOc1cc(/C=N/NC(=O)c2ccc(CN3CCOCC3)cc2)ccc1OCc1ccccc1	–	inconclusive [inhibitor, single point]
Cc1ccc(C)c(CN2C(=O)c3ccccc3S(=O)c3ccc(C(=O)N4CCC(C)CC4)cc32)c1 (stereo not drawn)	–	inconclusive [inhibitor, single point]
CCC(C)(C)NS(=O)(=O)c1cc(-c2cc(C)no2)ccc1C	–	inconclusive [inhibitor, single point]
COc1ccc(-c2cc(-c3cccs3)c(C#N)c(SCC(=O)NCc3ccccc3OC)n2)cc1	–	inconclusive [inhibitor, single point]
CCN1c2ccccc2-c2nc(SCC(=O)Nc3cccc(C(F)(F)F)c3)ncc2S1(=O)=O	–	inconclusive [inhibitor, single point]
COc1ccc2nc(S(=O)Cc3ncc(C)c(OC)c3C)[nH]c2c1 (stereo not drawn)	–	inconclusive [inhibitor, single point]
O=C(NC1CCN(Cc2ccc(Cl)cc2Cl)CC1)c1ccccc1	–	active: 20.6 µM
COc1ccc(Cl)cc1-n1c(N)c(C(N)=O)sc1=S	–	active: 16.4 µM
c1cc(-c2cnc3cccnn23)c2cccnc2c1	–	active: 9.2 µM
CCc1ccccc1N(C(=O)c1snc(C(N)=O)c1N)C(C(=O)NCC1CCCO1)c1c[nH]c2ccccc12 (stereo not drawn)	–	inconclusive [inhibitor, single point]
